{
  "source": "PubChem BioAssay AID504332",
  "about": "(National Center for Advancing Translational Sciences (NCATS), 2011)",
  "note": "Hit rate of the full screen: of about 350,000 compounds, about 31,000 (8.9%) were called active. The inconclusive results got no clear call from the source; some entries with a clear call stand among them for comparison. Calls follow the shape of the dose curve; as a rule, active = well fitted inhibition curve with a large enough effect; inconclusive = small, poorly fitted or top-dose-only effect; inactive = no such curve, though single readings can be large or run the other way. Potencies beside an inconclusive call are fits to weak or partial responses and may not hold up. % is scaled to controls: 0 for no effect and ±100 for the full control effect; potency is read from the fitted curve at half-maximal effect; tags tell the direction and shape of the fitted curve.",
  "data": [
    {"target": "Histone-lysine N-methyltransferase EHMT2 (Homo sapiens) (UniProt Q96KQ7)", "sequence (Q96KQ7 whole entry, looked up)": "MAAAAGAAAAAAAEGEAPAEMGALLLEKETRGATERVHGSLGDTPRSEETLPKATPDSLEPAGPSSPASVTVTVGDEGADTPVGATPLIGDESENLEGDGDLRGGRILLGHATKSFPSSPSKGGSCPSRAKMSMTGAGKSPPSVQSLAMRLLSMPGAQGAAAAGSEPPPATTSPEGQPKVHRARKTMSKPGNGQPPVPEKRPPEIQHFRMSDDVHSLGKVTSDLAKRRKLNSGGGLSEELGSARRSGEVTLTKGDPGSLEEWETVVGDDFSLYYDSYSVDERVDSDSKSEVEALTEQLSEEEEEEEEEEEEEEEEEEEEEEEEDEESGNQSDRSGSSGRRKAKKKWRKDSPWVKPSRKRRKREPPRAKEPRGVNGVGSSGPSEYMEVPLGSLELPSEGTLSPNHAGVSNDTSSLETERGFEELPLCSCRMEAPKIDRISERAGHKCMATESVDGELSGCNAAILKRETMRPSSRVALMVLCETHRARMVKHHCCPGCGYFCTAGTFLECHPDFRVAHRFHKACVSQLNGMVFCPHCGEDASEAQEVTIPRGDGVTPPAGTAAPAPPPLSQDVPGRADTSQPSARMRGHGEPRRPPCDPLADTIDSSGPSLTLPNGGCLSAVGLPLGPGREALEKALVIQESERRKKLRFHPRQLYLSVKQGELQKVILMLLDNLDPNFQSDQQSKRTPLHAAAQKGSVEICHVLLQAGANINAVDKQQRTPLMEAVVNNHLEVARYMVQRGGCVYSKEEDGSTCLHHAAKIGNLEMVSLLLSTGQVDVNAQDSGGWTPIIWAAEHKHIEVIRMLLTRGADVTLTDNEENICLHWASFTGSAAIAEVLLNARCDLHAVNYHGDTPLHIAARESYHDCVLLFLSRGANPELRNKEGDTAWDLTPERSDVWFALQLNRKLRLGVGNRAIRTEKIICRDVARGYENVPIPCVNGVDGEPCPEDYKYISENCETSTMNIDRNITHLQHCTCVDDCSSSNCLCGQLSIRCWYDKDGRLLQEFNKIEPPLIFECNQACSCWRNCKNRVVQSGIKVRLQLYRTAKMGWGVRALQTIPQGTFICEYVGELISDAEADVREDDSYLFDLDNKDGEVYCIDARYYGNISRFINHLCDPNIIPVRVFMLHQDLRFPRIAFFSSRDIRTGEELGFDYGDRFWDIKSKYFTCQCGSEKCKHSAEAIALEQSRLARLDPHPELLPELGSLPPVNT", "experiment": "qHTS Assay for Inhibitors of Histone Lysine Methyltransferase G9a; also: nearly all actives have a fitted effect of over 75% in size", "details": "G9a H3K9 monomethylation, AlphaScreen, 2 h; activity, negative = inhibition: at 59 µM (top of the series) unless noted", "how_it_was_run": "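Using a bead-based AlphaScreen, monomethylated H3K9 product from 2 h room-temperature reactions (G9a 20 nM, peptide 500 nM, SAM 20 uM) was detected with 0.5 ug/mL rabbit anti-H3K9me1 antibody.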", "values": [
      {"compound": "CCc1ccc(NC(=O)CCS(=O)(=O)c2cc3c(cc2Cl)NC(=O)CO3)cc1", "activity, negative = inhibition": "inactive: -7.38%"},
      {"compound": "COc1cc(C2CC(=O)Oc3cc4c(cc32)OCO4)cc(OC)c1OC", "note": "(stereo unspecified)", "Potency": "inconclusive: 28.2 µM [inhibitor, single point]"},
      {"compound": "Nc1nc(NC2CC2)c2ncn([C@H]3C=C[C@@H](CO)C3)c2n1", "Potency": "inconclusive: 25.1 µM [inhibitor, single point]"},
      {"compound": "O=C(NNCc1ccc(O)cc1)c1ccccc1Cl", "Potency": "inconclusive: 79.4 µM [inhibitor, single point]"},
      {"compound": "Clc1ncn(CCOc2ccccc2)c1Cl", "Potency": "inconclusive: 35.5 µM [inhibitor, partial curve]"},
      {"compound": "CCOC(=O)C1(Cc2cccc(OC)c2)CCN(Cc2ccc(C)s2)CC1", "activity, negative = inhibition": "inactive: 0.0701% [at 102 µM]"},
      {"compound": "Cc1cccc(NC(=O)CSc2nc(-c3cccs3)cc(C(F)(F)F)c2C#N)c1C", "activity, negative = inhibition": "inactive: 29.8%"},
      {"compound": "COC(=O)c1c(-c2cccs2)csc1NC(=O)c1ccc(Br)cc1", "Potency": "active: 1.58 µM"},
      {"compound": "COC(=O)c1c(-c2cccs2)csc1NC(=O)c1cccc(Cl)c1", "Potency": "inconclusive: 3.98 µM [inhibitor, full curve, poor fit]"},
      {"compound": "COc1ccc(S(=O)(=O)Nc2nncs2)cc1", "Potency": "inconclusive: 31.6 µM [inhibitor, single point]"},
      {"compound": "OC(CNC1CCCCC1)CN1CCN(CC(O)CNC2CCCCC2)CC1", "note": "(stereo unspecified)", "activity, negative = inhibition": "inactive: -1.75% [at 12.7 µM]"},
      {"compound": "Cc1ccc(N2C(=O)c3n[nH]c(C)c3C2c2cccnc2)cc1", "note": "(stereo unspecified)", "Potency": "active: 50.1 µM"},
      {"compound": "COc1ccc(NC(=S)NC2CCCCC2)c(OC)c1", "Potency": "active: 50.1 µM"},
      {"compound": "O=[N+]([O-])c1cccc(/C=N/NC2=NS(=O)(=O)c3ccccc32)c1", "activity, negative = inhibition": "inactive: -22.3% [at 102 µM]"},
      {"compound": "Cc1cccc(-c2c3c(=O)n(C)c(=O)n(C)c3c3c(C)nc4ccccc4n23)c1", "activity, negative = inhibition": "inactive: -49.4%"},
      {"compound": "CCOC(=O)c1sc(NC(=O)C2CC(=O)N(c3ccc4c(c3)OCCO4)C2)nc1C", "note": "(stereo unspecified)", "Potency": "inconclusive: 1 µM [inhibitor, single point]"},
      {"compound": "CC(/C=C/c1ccco1)=N\\NC(=O)CNc1ccc2ccccc2c1", "Potency": "active: 5.62 µM"},
      {"compound": "Cn1cccc1CNCC(O)c1ccccc1", "note": "(stereo unspecified)", "Potency": "inconclusive: 79.4 µM [inhibitor, single point]"},
      {"compound": "COc1ccc(-c2nc(C#N)c(N3CCCCC3)o2)cc1", "activity, negative = inhibition": "inactive: -6.53% [at 2.33 µM]"},
      {"compound": "Cc1ccccc1NC(=O)CSc1nc2ccccc2c(=O)n1CC1CCCO1", "note": "(stereo unspecified)", "activity, negative = inhibition": "inactive: 8.14% [at 102 µM]"},
      {"compound": "Cc1ccc(NC(=O)CN2C(=O)N/C(=C\\c3cccn3-c3cccc(C(=O)O)c3)C2=O)cc1", "Potency": "active: 8.91 µM"},
      {"compound": "CCN(c1ccccc1)S(=O)(=O)c1cc(Br)cc2c1N(C(=O)C1CC1)CC2", "activity, negative = inhibition": "inactive: -30%"},
      {"compound": "O=C(CSc1nnc(Cn2c(=O)sc3ccccc32)n1-c1ccccc1)N1CCOCC1", "Potency": "active: 44.7 µM"},
      {"compound": "CCN(CC)c1ccc(NC(=O)OC)cc1", "Potency": "active: 3.55 µM"},
      {"compound": "CNc1ccc(SC#N)cc1", "Potency": "active: 44.7 µM"},
      {"compound": "COC(=O)c1cc(Br)c(=O)n(-c2cc(C)on2)c1", "activity, negative = inhibition": "inactive: 4.07% [at 102 µM]"},
      {"compound": "Cn1cccc1C(=O)c1ccc(Cl)cc1Cl", "Potency": "inconclusive: 79.4 µM [inhibitor, single point]"},
      {"compound": "COC(=O)C(Cc1c[nH]c2ccccc12)NC(=O)C(C)C", "note": "(stereo unspecified)", "activity, negative = inhibition": "inactive: -4.62% [at 102 µM]"},
      {"compound": "Cc1ccc(C(=O)NCC(=O)Nc2ccc3c(c2)CCC3)cc1C", "activity, negative = inhibition": "inactive: 0.802% [at 102 µM]"},
      {"compound": "COc1ccc(CNC(=O)C(=O)Nc2c3c(nn2-c2ccccc2)CSC3)cc1", "activity, negative = inhibition": "inactive: 41.9%"},
      {"compound": "COc1cc(OC)c(OC)cc1CN1CCc2nc(Nc3ccc4c(c3)OCCO4)ncc2C1", "Potency": "active: 14.1 µM"},
      {"compound": "O=C(Nc1ccccc1)Nc1cccc(Cl)c1", "activity, negative = inhibition": "inactive: 9.69% [at 12.7 µM]"},
      {"compound": "CC(/C=N/n1cnnc1)=C\\c1ccco1", "Potency": "inconclusive: 39.8 µM [inhibitor, single point]"},
      {"compound": "C/C(CC(=O)Nc1ccc2c(c1)OCCO2)=N\\NC(=O)COc1ccccc1C", "Potency": "inconclusive: 79.4 µM [inhibitor, single point]"},
      {"compound": "COCC(=O)Nc1cc(OC)ccc1OC", "Potency": "inconclusive: 2 µM [inhibitor, partial curve, poor fit]"},
      {"compound": "c1csc(Cc2nn3c(-c4ccncc4)nnc3s2)c1", "Potency": "active: 12.6 µM"},
      {"compound": "CCOC(=O)C1(CCOC)CCN(Cc2cccc(OCc3ccccc3)c2)CC1", "activity, negative = inhibition": "inactive: 33.8% [at 102 µM]"},
      {"compound": "CC(=O)OC[C@H]1O[C@@](COC(C)=O)(O[C@H]2O[C@H](COC(C)=O)[C@@H](OC(C)=O)[C@H](OC(C)=O)[C@H]2OC(C)=O)[C@@H](OC(C)=O)[C@@H]1OC(C)=O", "activity, negative = inhibition": "inactive: 8.48% [at 12.7 µM]"},
      {"compound": "S=c1nc(COc2ccccc2)[nH]c2ccccc12", "Potency": "active: 17.8 µM"},
      {"compound": "CCc1noc(C)c1C(=O)N(C)CC(=O)Nc1ccccc1C(F)(F)F", "activity, negative = inhibition": "inactive: -4.89% [at 102 µM]"},
      {"compound": "CC(C)C(=O)OCC(=O)Nc1ccc2c(c1)CCC2", "activity, negative = inhibition": "inactive: -28.4%"},
      {"compound": "Cc1c(C(=O)N2CCCCC2)c(S(=O)(=O)NCc2ccc(N(C)C)cc2)c(C)n1C", "Potency": "inconclusive: 25.1 µM [inhibitor, partial curve, poor fit]"},
      {"compound": "Cn1c(=O)c2c(ncn2CC(=O)OCC(=O)NC2CCCc3ccccc32)n(C)c1=O", "note": "(stereo unspecified)", "Potency": "inconclusive: 39.8 µM [inhibitor, full curve]"},
      {"compound": "CCOc1ccc(C(=O)c2cn(CC(=O)Nc3cccc(OC)c3)c3cc4c(cc3c2=O)OCCO4)cc1", "activity, negative = inhibition": "inactive: 17%"},
      {"compound": "Cc1nnc(SCC(=O)N2CCOCC2)[nH]c1=O", "Potency": "inconclusive: 25.1 µM [inhibitor, single point]"},
      {"compound": "CC(C)NC(=O)NC(=O)COC(=O)c1cccc(S(=O)(=O)N2CCCCC2)c1", "Potency": "inconclusive: 89.1 µM [inhibitor, single point]"},
      {"compound": "O=C(c1cc2ccccc2o1)N1CCN(S(=O)(=O)c2ccccc2)CC1", "Potency": "inconclusive: 56.2 µM [inhibitor, partial curve]"},
      {"compound": "Cc1[nH]n2c(=O)cc(-c3ccc(Cl)cc3)nc2c1-c1ccccc1", "activity, negative = inhibition": "inactive: 4.14%"},
      {"compound": "CC1=CC(=Nc2c(C)n(C)n(-c3ccccc3)c2=O)C=C(C)C1=O", "Potency": "active: 39.8 µM"},
      {"compound": "Cc1cccc(N2CCN(C(=O)C3CCN(C(=O)c4cc5sccc5n4C)CC3)CC2)c1C", "Potency": "inconclusive: 31.6 µM [inhibitor, single point]"},
      {"compound": "Cc1ccc(-c2[nH]c3c(c2-c2c(-n4cccc4)n(C)c(=O)[nH]c2=O)c(=O)[nH]c(=O)n3C)cc1", "activity, negative = inhibition": "inactive: -6.22%"}
    ]}
  ]
}
